The list shows a part of the results. Antibody binding of pooled human sera (four to six donors per pool; dilution not stated) to peptides of the Trypanosoma cruzi antigen TSSA on microarrays. Quantile-normalised fluorescence in arbitrary units, mean of duplicate arrays; higher = more binding. No active / inactive call. The uninfected pools are read here as the healthy donors of the same country. The strongest signals lie near the top of the scale (about 60,000).
Key:
Experiment in all cases: antibody binding signal (normalised fluorescence) (arbitrary fluorescence units); higher = stronger serum antibody binding to peptide
[1] = tested on: pooled sera of chronic Chagas disease patients, Argentina
Procedure: (§1)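 Microarray of overlapping 15-residue peptides of the four Trypanosoma cruzi TSSA reference variants and 8- to 13-residue peptides of TSSAII 24-62, probed with one serum pool per country.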

[2] = tested on: pooled sera of chronic Chagas disease patients, Bolivia
Procedure: as §1

[3] = tested on: pooled sera of chronic Chagas disease patients, Brazil
Procedure: as §1

[4] = tested on: pooled sera of chronic Chagas disease patients, Colombia
Procedure: as §1

[5] = tested on: pooled sera of chronic Chagas disease patients, Mexico
Procedure: as §1

[6] = tested on: pooled sera of chronic Chagas disease patients, USA
Procedure: as §1

[7] = tested on: pooled sera of uninfected people, Argentina
Procedure: as §1

[8] = tested on: pooled sera of uninfected people, Bolivia
Procedure: as §1

[9] = tested on: pooled sera of uninfected people, Colombia
Procedure: as §1

[10] = tested on: pooled sera of uninfected people, Mexico
Procedure: as §1

[11] = tested on: pooled sera of uninfected people, USA
Procedure: as §1

| Sequence | antibody binding signal [1] | antibody binding signal [2] | antibody binding signal [3] | antibody binding signal [4] | antibody binding signal [5] | antibody binding signal [6] | antibody binding signal [7] | antibody binding signal [8] | antibody binding signal [9] | antibody binding signal [10] | antibody binding signal [11] |
| --- | --- | --- | --- | --- | --- | --- | --- | --- | --- | --- | --- |
| ATGEAPSQPGASS | 23200 | 45000 | 35800 | 1260 | 1260 | 11300 | 306 | 319 | 132 | 275 | 158 |
| ENKPATGEAPSQ | 45900 | 48400 | 48700 | 291 | 372 | 46500 | 1060 | 840 | 136 | 212 | 206 |
| STPPSGTEN | 41300 | 37100 | 28100 | 108 | 182 | 238 | 327 | 162 | 103 | 97.1 | 162 |
| KPATGEAPSQPGA | 50300 | 41900 | 49400 | 183 | 335 | 43100 | 915 | 898 | 210 | 339 | 257 |
| PSQPGASSGEAEASS | 195 | 116 | 8040 | 130 | 149 | 99.9 | 154 | 96.3 | 101 | 95.8 | 67.4 |
| GTENKPATGEA | 37900 | 30200 | 34800 | 1030 | 1950 | 21700 | 539 | 1350 | 132 | 430 | 367 |
| TENKPATGEAP | 48700 | 42600 | 45700 | 348 | 629 | 43000 | 1070 | 894 | 167 | 232 | 228 |
| TISTPPSGTEKKAAA | 38800 | 5330 | 34400 | 1030 | 18900 | 4240 | 3220 | 468 | 255 | 111 | 810 |
| SGEAEASS | 65 | 72.6 | 124 | 88 | 169 | 60.9 | 57.4 | 93.3 | 73.8 | 75.8 | 60.6 |
| EAPSQPGASSG | 11700 | 34400 | 1260 | 92.8 | 117 | 255 | 163 | 133 | 187 | 221 | 113 |
| ASSGEAEAS | 137 | 113 | 255 | 385 | 237 | 73.9 | 223 | 145 | 87.5 | 82.7 | 231 |
| ASSGEAEA | 150 | 113 | 269 | 268 | 157 | 63.5 | 122 | 108 | 105 | 86.6 | 90.1 |
| SSTPPSGTEN | 36800 | 38100 | 28500 | 109 | 159 | 242 | 320 | 155 | 117 | 103 | 167 |
| STPPSGTDKKTAAGE | 29900 | 30600 | 31800 | 4470 | 25400 | 5890 | 633 | 160 | 218 | 1350 | 132 |
| ATGEAPSQPGA | 20700 | 34100 | 37700 | 257 | 255 | 15000 | 271 | 195 | 170 | 238 | 146 |
| GSTSSTPPS | 247 | 251 | 275 | 228 | 193 | 147 | 199 | 216 | 105 | 118 | 78 |
| NGGSTISTPPSGTDK | 36800 | 26100 | 33000 | 443 | 52000 | 8740 | 676 | 221 | 219 | 266 | 160 |
| KKAAAGEAPSPSGAS | 199 | 202 | 665 | 166 | 192 | 8030 | 256 | 225 | 97.9 | 70 | 187 |
| PPSGTEKKAAAGEAP | 23700 | 11700 | 17700 | 811 | 1930 | 9460 | 997 | 429 | 250 | 169 | 232 |
| TISTPPSGTDKKTAA | 34800 | 5230 | 33400 | 7340 | 41600 | 3810 | 1290 | 123 | 169 | 951 | 326 |
| ENKPATGE | 33200 | 27400 | 34100 | 236 | 530 | 20000 | 352 | 940 | 87.8 | 123 | 132 |
| GASSGEAE | 181 | 118 | 2900 | 169 | 129 | 83.4 | 158 | 138 | 221 | 138 | 99.3 |
| GTDKKTAAGEAPSPS | 201 | 255 | 576 | 1300 | 484 | 7610 | 160 | 252 | 1070 | 149 | 104 |
| SSGEAEASS | 173 | 95.2 | 162 | 109 | 157 | 76 | 144 | 108 | 100 | 79.3 | 110 |
| APSQPGAS | 857 | 610 | 1420 | 513 | 9310 | 359 | 642 | 1640 | 1140 | 3550 | 1840 |
| SSTPPSGT | 285 | 179 | 407 | 118 | 198 | 126 | 96.3 | 110 | 103 | 148 | 133 |
| PPSGTENKPATG | 51800 | 43100 | 53100 | 2270 | 6390 | 27500 | 6430 | 2850 | 914 | 771 | 1190 |
| PATGEAPSQP | 46600 | 46800 | 45900 | 120 | 194 | 26700 | 721 | 121 | 119 | 110 | 120 |

| Sequence | antibody binding signal [1] | antibody binding signal [2] | antibody binding signal [3] | antibody binding signal [4] | antibody binding signal [5] | antibody binding signal [6] | antibody binding signal [7] | antibody binding signal [8] | antibody binding signal [9] | antibody binding signal [10] | antibody binding signal [11] |
| --- | --- | --- | --- | --- | --- | --- | --- | --- | --- | --- | --- |
| STSSTPPSGTENKPA | 53200 | 53200 | 52200 | 767 | 9400 | 42800 | 8740 | 1440 | 915 | 788 | 990 |
| ANGGSTSS | 485 | 864 | 683 | 192 | 714 | 1830 | 307 | 386 | 122 | 285 | 286 |
| GSTISTPPSGTDKKT | 15600 | 3130 | 36200 | 2500 | 21700 | 8540 | 412 | 101 | 160 | 609 | 157 |
| TANGGSTSSTPPSGT | 225 | 297 | 926 | 205 | 434 | 238 | 198 | 311 | 136 | 176 | 129 |
| SGTENKPA | 52100 | 32500 | 42500 | 323 | 1050 | 9270 | 2090 | 1720 | 196 | 639 | 688 |
| PGTDKKTAAGGTPSP | 36400 | 9710 | 16200 | 45900 | 45400 | 29900 | 426 | 172 | 273 | 491 | 177 |
| SQPGASSGEAEASSN | 245 | 139 | 6520 | 207 | 251 | 1730 | 132 | 143 | 123 | 140 | 80 |
| AAGEAPSPSGASSGE | 361 | 214 | 2160 | 185 | 674 | 152 | 344 | 161 | 149 | 103 | 148 |
| GTDKKTAAGGTPSPS | 469 | 209 | 181 | 10200 | 485 | 1870 | 94.3 | 172 | 298 | 171 | 125 |
| KPATGEAPSQPG | 47700 | 43700 | 47600 | 192 | 345 | 37600 | 820 | 845 | 144 | 219 | 171 |
| SGTENKPATG | 39200 | 26000 | 41000 | 390 | 876 | 8610 | 2180 | 2160 | 196 | 503 | 378 |
| GEAEASSNKNDGSLS | 176 | 1040 | 2110 | 438 | 718 | 1720 | 141 | 224 | 260 | 1710 | 640 |
| TPPSGTENKPATG | 47800 | 48400 | 52200 | 2160 | 5540 | 33700 | 8860 | 2420 | 991 | 840 | 948 |
| APSQPGASS | 963 | 1340 | 446 | 586 | 11900 | 252 | 172 | 318 | 303 | 3630 | 275 |
| TAAGGTPSPSGASSG | 4320 | 183 | 319 | 269 | 1030 | 170 | 125 | 219 | 581 | 261 | 637 |
| TGEAPSQPGASSG | 16800 | 46200 | 22600 | 112 | 137 | 2640 | 165 | 117 | 101 | 172 | 94.9 |
| EAPSPSGASSGEAEA | 124 | 141 | 4480 | 125 | 795 | 123 | 277 | 129 | 114 | 75.5 | 140 |
| SSTPPSGTENKP | 49200 | 40000 | 44900 | 280 | 9550 | 30600 | 7740 | 969 | 736 | 427 | 727 |
| SSTPPSGTE | 12400 | 141 | 9360 | 94.1 | 139 | 67.2 | 95 | 71.8 | 80.2 | 111 | 78.1 |
| STPPSGTENKP | 50300 | 47200 | 49900 | 282 | 9010 | 41900 | 8780 | 837 | 789 | 620 | 749 |
| ANGGSTSST | 830 | 2580 | 761 | 1620 | 1860 | 2200 | 160 | 307 | 156 | 346 | 277 |
| TENKPATGE | 40500 | 26300 | 33600 | 206 | 616 | 19800 | 427 | 940 | 98.4 | 139 | 146 |
| ANGGSTSSTPP | 2140 | 2090 | 1020 | 4140 | 2950 | 2440 | 281 | 478 | 189 | 428 | 322 |
| GGSTSSTPPSGT | 304 | 274 | 696 | 247 | 273 | 296 | 196 | 193 | 104 | 163 | 137 |
| TSSTPPSGTEN | 39200 | 40700 | 28200 | 112 | 166 | 246 | 325 | 154 | 92.9 | 119 | 156 |
| SPSGASSGEAEASSN | 214 | 103 | 1380 | 183 | 502 | 1480 | 146 | 118 | 114 | 130 | 88.7 |
| GTEKKAAAGEAPSPS | 670 | 215 | 1580 | 709 | 939 | 11200 | 154 | 928 | 106 | 115 | 129 |

Reference: the supplement of paper PMC10441789
